Results as given in PubChem BioAssay AID1508642 (National Center for Advancing Translational Sciences (NCATS), 2021).
In all, about 43,000 compounds went through this assay and about 200 (0.47%) were called active. Not shown: some 12% with an inconclusive outcome. Calls follow the shape of the dose curve; as a rule, active = well fitted cell-killing curve with a large enough effect; inconclusive = small, poorly fitted or top-dose-only effect, or effect the other way; inactive = flat fitted curve, though single readings scatter. The list shows a part of the results.

Assay: Cell viability qHTS assay in S16 Pmp22-F2sN cells; also: nearly all actives have a fitted effect of over 65% in size
Conditions: S16 Pmp22-F2sN Schwann cells (luciferase reporters placed in the Pmp22 gene) viability, CellTiter-Glo, 24 h; series mostly up to 57.5 µM; activity change, negative = cytotoxicity: at the top concentration
How it was run: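 Luminescence from CellTiter-Glo, read by CCD camera after a 15 min room-temperature incubation, served as the viability signal. Reporter Schwann cells (S16 Pmp22-F2sN) had been treated with pin-transferred compounds for 24 h at 37C.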
% is scaled to controls: 0 for no effect and ±100 for the full control effect.

Compound | activity change, negative = cytotoxicity
CCCc1ccc(-c2ccc(C(=O)Oc3ccc(Br)cc3)cc2)nc1 | inactive: 5.38%
CCOc1ccc(NC(=O)Cn2c(=O)c(CNc3ccccc3)cc3cc4c(cc32)OCCO4)cc1 | inactive: 10.7%
COc1ccc(Cl)cc1C(=O)Nc1c2c(nn1-c1ccc(Cl)cc1)CS(=O)(=O)C2 | inactive: 1.47%
Cc1cc(C)cc(-n2ccnc(NCc3ccc(F)cc3)c2=O)c1 | inactive: -23%
CCOC(=O)c1c(C)[nH]c(C)c1S(=O)(=O)N1CCC(C(=O)NCc2ccc(N(C)C)cc2)CC1 | inactive: -1.85%
CN(C)C1(CNC(=O)COc2ccc(C(C)(C)C)cc2)CCCCC1 | inactive: 0.404%
O=C(Nc1ccc2c(c1)OCO2)c1cc(-c2ccc(Cl)cc2)on1 | inactive: 4.61%
CCCCCn1c(-c2cccc(C)c2)nc2ccccc21 | inactive: -4.08%
COc1ccccc1OCC(=O)Nc1c(C(=O)c2ccc(C)cc2)oc2ccccc12 | inactive: -3.11%
COc1ccccc1CNS(=O)(=O)c1ccc(N2CCCCS2(=O)=O)cc1 | inactive: -25.8%
COc1ccc(OC)c(CCNC(=O)C(C)n2c(C)c3cnn(-c4ccccc4)c(=O)c3c2C)c1 (stereo not given) | inactive: -1.62%
COc1ccc(S(=O)(=O)NCCc2sc(-c3cccc(C)c3)nc2C)cc1 | inactive: 2%
Cc1ccc(CCNC(=O)c2cccc(Nc3nc4ccccc4nc3-n3nc(C)cc3C)c2)cc1 | inactive: 3.44%
COc1cc(Br)ccc1C1C(C(=O)Nc2ccc(C)cc2C)=C(C)Nc2nnnn21 (stereo not given) | inactive: -7.78%
COc1ccc(CCNc2nc3ccccc3c3nc(-c4cccc(C)c4)nn23)cc1OC | inactive: 3.75%
Cc1ccc(NC(=O)CSCc2cnn(-c3ccccc3)c2-n2cccc2)c(Cl)c1 | inactive: -1.89%
CCc1ccccc1NC(=O)Cn1c(=O)n(-c2ccc(C)c(C)c2)c(=O)c2oc3ccccc3c21 | inactive: 17.4%
CC(C)CCNC(=O)c1ccc(Cn2c(SCC(N)=O)nc3ccccc3c2=O)cc1 | inactive: 17.6%
CCOc1cc(C(=O)OCc2cc(=O)n3nc(C4CC4)sc3n2)cc(OCC)c1OCC | inactive: -5.78%
COc1cc(OC)c(NC(=O)NCc2cccn2Cc2ccccc2)cc1Cl | inactive: -4.77%
CCc1ccc(-n2nc(C)c3c(C(=O)N4CCN(c5cccc(Cl)c5)CC4)cc(C)nc32)cc1 | inactive: 0.964%
Cc1nn(CC(=O)N2CCN(c3cccc(Cl)c3)CC2)c(=O)c2c1sc1ccccc12 | inactive: -0.802%
CCOC(=O)c1ccc(NC(=O)CCc2c(C)nc3c(c(C)nn3C(C)(C)C)c2C)cc1 | inactive: 2.1%
CC1CCCN(S(=O)(=O)c2cc(C(=O)NCc3ccccc3Cl)n(C)c2)C1 (stereo not given) | inactive: -0.898%

Compound | activity change, negative = cytotoxicity
Cc1ccc(F)cc1NC(=O)CCSc1nc(-c2ccco2)cc(C(F)(F)F)n1 | inactive: -11.8%
Cc1ccc(NC(=O)C(=O)NCC(c2cccnc2)N2CCc3ccccc3C2)cc1 (stereo not given) | inactive: -4.05%
COC(=O)c1c(-c2cccs2)csc1NC(=O)c1cc(OC)c(OC)c(OC)c1 | inactive: 5.1%
CC(C)CCNC(=O)c1nn(C)c2c1CSc1ccccc1-2 | inactive: -0.254%
COc1ccc(-c2cn3c(n2)sc2cc(C(=O)Nc4ccc(F)cc4Cl)ccc23)cc1 | inactive: 5.91%
COc1ccc(-n2ccn(CC(=O)Nc3ccc(C)c(C)c3)c(=O)c2=O)cc1OC | inactive: 4.47%
CCOc1cc2[nH]c(=O)n(CCCC(=O)NCc3ccc(OC)cc3)c(=O)c2cc1OCC | inactive: 1.52%
O=C(NC1CCCCCC1)c1ccc(CS(=O)c2ccc(Br)cc2)o1 (stereo not given) | inactive: -22.8%
COc1cccc(C2c3c(-c4ccccc4O)n[nH]c3C(=O)N2Cc2cccnc2)c1 (stereo not given) | inactive: -7.1%
CCN(C(=O)c1cc2cc(Br)cc(OC)c2oc1=O)c1ccccc1 | inactive: 13.6%
CC(=O)c1ccc(NC(c2ccc(F)cc2)c2nnc(-c3ccccc3)o2)cc1 (stereo not given) | inactive: 10.1%
CC(C)(C)OC(=O)N1CCC(c2c(C(=O)N3CCN(c4ccccn4)CC3)cnn2-c2ccccc2Cl)CC1 | inactive: -0.19%
CCOCCCNC(=O)c1cn(CC)c2ccc(S(=O)(=O)N3CCc4ccccc4C3)cc2c1=O | inactive: -9.95%
CCOC(=O)c1[nH]c(C)c(CCC(=O)N2CCN(c3cccc(C)c3C)CC2)c1C | inactive: -24.2%
COc1cc(C(CC(=O)Nc2cc(C)ccc2C)N2Cc3ccccc3C2=O)cc(OC)c1OC (stereo not given) | inactive: -0.107%
CN(Cc1ccccc1)C(=O)c1cccc(NC(=O)c2nsc3ccccc23)c1 | inactive: -26.5%
CCOc1ccc(CC(=O)NCCc2csc(-c3ccc(Cl)cc3)n2)cc1 | inactive: -4.3%
CCc1ccc(Nc2sc(C(=O)c3ccccc3)c(N)c2S(C)(=O)=O)cc1 | inactive: -2.48%
CCOCCc1nn2c(=O)cc(COC(=O)CNC(=O)c3ccc(F)cc3)nc2s1 | inactive: -0.443%
CCOc1ccc(CN2C(=O)c3ccccc3Sc3ccc(C(=O)OC)cc32)cc1 | inactive: -22.6%
COc1ccc(OC)c(CNC(=O)c2c(C)oc3ncn(C)c(=O)c23)c1 | inactive: -17.7%
O=C(c1ccc2c(c1)CCN2S(=O)(=O)c1ccc(Cl)cc1)N1CCN(c2ccccc2)CC1 | inactive: -11.3%
COc1ccc(CNc2oc(/C=C/c3cccc(OC)c3)nc2C#N)cc1 | inactive: -24.7%
O=C(NCc1ccc(F)cc1)C1CCN(c2ncnc3c2nc2n3CCCCC2)CC1 | inactive: 14.3%

Compound | activity change, negative = cytotoxicity
COc1ccc(CNC(=O)c2ccc3c(c2)N(Cc2ccccc2C)C(=O)c2ccccc2S3=O)cc1 (stereo not given) | inactive: -6.14%
CCOC(=O)C1CCN(S(=O)(=O)c2ccc(N3CCCCS3(=O)=O)cc2)CC1 | inactive: -1.35%
CCCn1c(=O)c2sccc2n2c(CCCC(=O)Nc3ccc(Oc4ccccc4)cc3)nnc12 | inactive: 1.06%
CCn1c(SCc2ccc(F)cc2Cl)nc(=O)c2c(C(=O)OC)cc(C3CC3)nc21 | inactive: -19.5%
Cc1ccc(CNC(=O)c2cc(-c3ccc(C)cc3)nc3n[nH]c(-c4ccc(F)cc4)c23)cc1 | inactive: -1.24%
CC(C)C1N=C2c3ccccc3N=C(SCC(=O)NCc3ccccc3Cl)N2C1=O (stereo not given) | inactive: -21.1%
Cc1ccc(-c2cn3c(n2)sc2cc(C(=O)NCc4cccs4)ccc23)c(C)c1 | inactive: -21.9%
Cc1ccc(N(Cc2cc3ccccc3[nH]c2=O)C(=O)c2cccc(Cl)c2)cc1 | inactive: 1.98%
CCN(CC)CCCNC(=O)CSc1nc2nc(C)c(Cc3c(F)cccc3Cl)c(C)n2n1 | inactive: 1.88%
CC1=C(C(N)=O)C(c2cccc(C)c2)n2nc(-c3cccc(C)c3)nc2N1 (stereo not given) | inactive: -16.1%
Cc1ccc(C)c(NC(=O)Cn2c(=O)n(Cc3ccc4c(c3)OCO4)c(=O)c3oc4ccccc4c32)c1 | inactive: 8.29%
Cc1ccc(CSc2nnc(-n3c(=O)c(C#N)cc4c(=O)n5cc(C)ccc5nc43)s2)cc1 | inactive: -19.8%
COc1ccc(-c2noc(CSc3nc(C)cc(=O)[nH]3)n2)cc1OC | inactive: 17%
COc1ccc(OCC2c3cc(OC)c(OC)cc3CCN2C(=O)COc2ccc(Cl)cc2Cl)cc1 (stereo not given) | inactive: 1.66%
CC(C)c1ccc2occ(CC(=O)Nc3ccccc3Cl)c2c1 | inactive: -5.92%
COc1ccc(Cn2ccc3nc(C)c(C(=O)N4CCN(c5ccccc5OC)CC4)cc3c2=O)cc1 | inactive: -25.8%
CC(C)NC(=O)C(c1ccccc1)N1Cc2ccccc2C1=O (stereo not given) | inactive: 6.22%
CCN(C(=O)CSc1nc2ccccc2n1CC(=O)Nc1ccc(F)cc1F)c1ccccc1 | inactive: -0.953%
COc1ccc(-c2ccc(CCC(=O)O)n2-c2ccc(Cl)cc2C)cc1 | inactive: 0.312%
CCOC(=O)c1cccc(NC(=O)CCc2c(C)nn(-c3ccc(N4CCOCC4)nn3)c2C)c1 | inactive: 22.7%
Cc1cn2c(=O)c(S(=O)(=O)NCc3ccccc3Cl)c(C)nc2s1 | inactive: -1.18%
COCCCn1c(=O)c2sccc2n2c(CCCC(=O)NCc3ccc(F)cc3)nnc12 | inactive: 0.979%
Cc1ccc2[nH]c3c(=O)n(CC(=O)NCCc4ccc(Cl)cc4)ncc3c2c1 | inactive: 6.56%
COc1ccc(NC(=O)C2CCN(c3cnccn3)CC2)cc1Cl | inactive: 4.58%

Compound | activity change, negative = cytotoxicity
CCn1cc(S(=O)(=O)c2cccc(C)c2)c(=O)c2cc(F)c(N3CCN(c4ccccc4)CC3)cc21 | inactive: 2.95%
CCc1ccc(-n2nc(CO)c(C(=O)NCc3ccccc3OC)n2)cc1 | inactive: -2.79%
CCOC(=O)c1ccc2[nH]c(CSc3nnc(-c4cccc(F)c4)n3C)cc(=O)c2c1 | inactive: 9.68%
Cc1ccc(-n2nc(C(=O)N3CCN(c4cccc(C(F)(F)F)c4)CC3)c3c4ccccc4n(C)c3c2=O)cc1 | inactive: 1.01%
Cc1cccc(NC(=O)COc2cccc3c(=O)n(C)ccc23)c1C | inactive: -12.8%
Cc1ccc(C)c(-c2[nH]c3c(c2-c2c(-n4cccc4)n(C)c(=O)n(C)c2=O)c(=O)n(C)c(=O)n3C)c1 | inactive: 1.58%
COc1ccc(OC)c(NC(=O)c2cc(=O)c3c(C)cc(C)cc3o2)c1 | inactive: -0.372%
Cc1ccc(CNc2cc(C)nc3nc(-c4cccc(C)c4)nn23)cc1 | inactive: -7.66%
Cc1ccc(CNc2nccn(-c3cc(C)cc(C)c3)c2=O)cc1 | inactive: -20.7%
CCc1ccc(NS(=O)(=O)c2ccc3[nH]cc(C(=O)N(C)Cc4ccco4)c(=O)c3c2)cc1 | inactive: -2.24%
CCC(=O)N1CCc2cc(Br)cc(S(=O)(=O)CCC(=O)NCCc3ccccc3)c21 | inactive: -11%
CCc1ccccc1NC(=O)Cn1cc2c(n1)CCC(C)C2 (stereo not given) | inactive: -1.73%
CCCN(C(=O)CCNC(=O)Cn1cnc2ccccc2c1=O)c1cccc(C)c1 | inactive: 3.86%
CCN(C(=O)c1cc2c(=O)oc3ccc(C)cc3c2s1)c1ccccc1F | inactive: 13.1%
CCOc1ccccc1NC(c1nnc(-c2ccccc2)o1)c1ccc(F)cc1Cl (stereo not given) | inactive: -0.639%
CCOC(=O)c1c(NC(=O)c2ccc(OC)c(OC)c2)sc2c1CCCCC2 | inactive: 7.42%
O=C(Nc1ccc2oc(-c3ccc(Cl)cc3)nc2c1)c1ccc2ccccc2c1 | inactive: 5.72%
Cc1cccc(NS(=O)(=O)c2ccc(NC(=O)N3CCCC3)cc2)c1 | inactive: 5.25%
COc1ccc(CN2C(=O)c3oc4ccccc4c(=O)c3C2c2ccc(O)c(OC)c2)cc1 (stereo not given) | inactive: 11.7%
Cc1csc2nc(CCNS(=O)(=O)c3ccc(F)cc3)cn12 | inactive: -0.674%
CCOc1ccc(CNC(=O)c2ccc3c(c2)nc2n3CCC(C)C2)cc1OC (stereo not given) | inactive: 13.7%
Cc1ccc(NC(=O)Cn2c(SCc3ccc(F)cc3)nc3cccnc32)cc1F | inactive: -6.19%
O=C(O)c1ccc(NC(=O)c2cc3ccccc3o2)cc1 | inactive: 5.05%
